This is an account of results in the RNAGym collection of RNA variant scans (doi:10.1093/nar/gkz1192).

The source gives no read counts; variants with many changes may rest on few reads.

B1: CPEB3 Ribozyme (parent)
chain: UAACAGGGGGCCACAGCAGAAGCGUUCACGUCGCAGCCCCUGUCAGAUUCUGGUGAAUCUGCGAAUUCUGCUGUAUAUCUC

Variants of B1 are the subject of this series. As to the kind of experiment: self-cleavage, relative activity (ratio to wild type); higher = more cleavage; in vitro, sequencing. Summed up:
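Barcoded CPEB3 ribozyme mutants, produced by rounds of error-prone PCR, self-cleaved while being transcribed with T7 RNA polymerase for 5 hours at 37°C and during a subsequent 15 min DNase I step before EDTA was added. Sequencing of template-switched cDNA on Illumina gave cleaved and total reads, and DNA sequencing assigned barcodes to variants. Each variant's relative activity is its cleaved/total read fraction divided by the unmutated ribozyme's fraction, averaged across three batches. A variant needed a minimum of 5 reads.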
With UAACAGGGGGCCACGGCAGAAGCGUUCACGUCGCAGCCCCAGUCGGAUACUGGCGAAUCUGCGAAUUCUGCUGUAUACCUC, the self-cleavage came to 0.06.

Take UAACAGGGGGCCACGGCAGAAGCGUUCACGUCGCAGCCCCAGUCAGAUUCUGGUGAAUCUGCGAAUUCUGCUGUAUAUCCC: the self-cleavage was 0.28.

As for UAACAGGGGGCCACGGCAGAAGCGUUCACGUCGCAGCCCCAGUCAGAUUCUGGUGAAUCUUCGAAUCCUGCUGUAUAUCAC, the self-cleavage came to 0.13.

Take UAACAGGGGGCCACGGCAGAAGCGUUCACGUCGCAGCCCCAGUCAGAUUCUGGAGAAUCUGCGUAUACCGCUGUAUAUCUC: the self-cleavage is 0.

Regarding UAACAGGGGGCCACGGCAGAAGCGUUCACGCCGCAGCCCCUGUCAGAUUCUGGUGAAUCUGCGAAGUCUGCUGUAUAACUC, the self-cleavage stood at 0.16.

Regarding UAACAGGGGGCCACGGCAGAAGCGUUCACGUCGCAGCCCCCGUCAGAUCCUGGUGAAUCCGCGAAUUCUGCUGUAUAUCUC, the self-cleavage came to 0.07.

Consider UAACAGGGGGCCACGGCAGAAGCGUUCACGUCGCAGCCCCUGACGGUUUCUGGUGAAUCUGCGAAUUCUGCUGUAUAUCUC, for which the self-cleavage was determined as 0.48.

As to UAACAGGGGGCCACGGCAGAAGCGUUCACGUCGCAGCCCCAGUCAGAUUCUGGUGUAUCUGCGAAUUCUGCUGUAUAUCUC, the self-cleavage was found to be 0.07.

Regarding UAACAGGGGGCCACGGCAGAAGCGUUCACGCCGCAGCCCCUGGCAGAUUCUGGUGAAUCUGCGAAUUCCACUGUAUAUCUC, the self-cleavage was found to be 0.15.

Take UAACAGGGGGCCACGGCAGAAGCGUUCACGUCGCAGCCCCCGACAGAUUCUGGUGAAUCUGCGAAUUCUGCUGUGUGUCUC: the self-cleavage stood at 0.51.

Turning to UAACAGGGGGCCACGGCAGAAGCGUUCACGUCGCAGCCCCCGUCAGAUACAGGUGAAUCUGCGAAUUCUGCUGUAUAUCUC, the self-cleavage was 0.46.

In the case of UAACAGGGGGCCACGGCAGAAGCGUUCACGUCGCAGCCCCCGUCAGAUUCUGGAGAAUCUGCGAAUUCUGCUGUAUAUCUA, the self-cleavage was 1.03.

Regarding UAACAGGGGGCCACGGCAGAAGCGUUCACGCCGCAGCCCCUGUCAGAUUCUGGUGAAUCUGCGAAUUCUGCUGUAUGUCUC, the self-cleavage turned out to be 0.2.

Turning to UAACAGGGGGCCACGGCAGAAGCGUUCACGCCGCAGCCCCUGUCAGAUUCUGGUGAAUCUGCGAUUUCUGCUGUAUAUCUC, the self-cleavage worked out at 0.16.

For the variant UAACAGGGGGCCACGGCAGAAGCGUUCACGCCGCAGCCCCUGUCAGAUUCUGGCGAAUCUGCGAAUUCUGCUGUAUUUCUC, the self-cleavage was found to be 0.31.

Consider UAACAGGGGGCCACGGCAGAAGCGUUCACGUCGCAGCCCCCGUCAGAUUCUGGUGAAUCUGCGAAUUCUGCUGUGUGUCUC, for which the self-cleavage amounted to 0.71.

On to UAACAGGGGGCCACGGCAGAAGCGUUCACGCCGCAGCCCCUGUCAGAUUCUGGUGAAUCUGCGAAUUCAGCUGUAUAUCUC, for which the self-cleavage was 0.1.

For the variant UAACAGGGGGCCACGGCAGAAGCGUUCACGUCGCAGCCCCCGUCCGAUUCUGGUGAAUCUGCGAAUUCUGCUGUAUACCUC, the self-cleavage amounted to 0.14.

UAACAGGGGGCCACGGCAGAAGCGUUCACGUCGCAGCCCCAGUCAGACUCUGGUGAAUCUGCGAAUUCUGCUGUAUAUCUC: the self-cleavage came out at 0.22.

For the variant UAACAGGGGGCCACGGCAGAAGCGUUCACGUCGCAGCCCCAGUCAGAUUCUGGCGAAUCUGCGAAUUCUGCUGUAUAUCUC, the self-cleavage was found to be 0.32.

Regarding UAACAGGGGGCCACGGCAGAAGCGUUCACGUCGCAGCCCCCGUCAGAUUCUGGAGAAUCUGCGAAUUCUGCUGUAUAUCUC, the self-cleavage was determined as 1.07.

In the case of UAACAGGGGGCCACGGCAGAAGCGUUCACGUCGCAGCCCCCGUCAGAUUCUGGCGAAUCUGCGAAUUCUGCUGUAUAUCUC, the self-cleavage was found to be 0.6.

Turning to UAACAGGGGGCCACGGCAGAAGCGUUCACGCCGCAGCCCCUGUCGGAUUCUGGUGAAUCUGCGAAUUCUGCUGUAUAUCUC, the self-cleavage was 0.26.

Consider UAACAGGGGGCCACGGCAGAAGCGUUCACGUCGCAGCCCCUGACAGAUUCUAGUGAAUCUGCGAAUUCCGCUGUAUAUCUC, for which the self-cleavage was 0.19.

In the case of UAACAGGGGGCCACGGCAGAAGCGUUCACGUCGCAGCCCCUGCCAGAUUCUGGUGAAUCUGUGAAUUCCGCCGUAUAUCUC, the self-cleavage was found to be 0.06.

UAACAGGGGGCCACGGCAGAAGCGUUCACGCCGCAGCCCCUGUCAGAAUCUGGUGAAUCUGCGAGCCCUGCUGUAUAUCUC: the self-cleavage was found to be 0.

Consider UAACAGGGGGCCACGGCAGAAGCGUUCACGUCGCAGCCCCUGACAGAUUCUGGUGAAUCAGCGAGUUCUGCUGUAUAUCUC, for which the self-cleavage was 0.09.

As for UAACAGGGGGCCACGGCAGAAGCGUUCACGUCGCAGCCCCUGACAGAUUCUGGUGAAUCUGCGCAUUCUACCGUAUAUCUC, the self-cleavage was determined as 0.35.

As to UAACAGGGGGCCACGGCAGAAGCGUUCACGUCGCAGCCCCUGCCAGAUUCUGGUGGAUCUGCGAAUUCUGCUGUAUAUCUC, the self-cleavage was 0.37.

Regarding UAACAGGGGGCCACGGCAGAAGCGUUCACGUCGCAGCCCCCGUCAGACUCUGGUGAAUCUGCGAGUUCUGUUGUAUAUCUC, the self-cleavage came out at 0.16.

As for UAACAGGGGGCCACGGCAGAAGCGUUCACGUCGCAGCCCCCGUCAGAUUCUGGUGAAUCUGCGAAUACUGCUGUAUAUCUC, the self-cleavage came out at 0.3.

Regarding UAACAGGGGGCCACGGCAGAAGCGUUCACGCCGCAGCCCCUGUCAGACUCUGGUGAAUCCGAGAAUUCUGCUGUAUAUCUC, the self-cleavage came to 0.23.

UAACAGGGGGCCACGGCAGAAGCGUUCACGUCGCAGCCCCCGUCAGAUUCAGGUGUAUCCGCGAAUUCUGCUGUAUAUCUC: the self-cleavage amounted to 0.44.

UAACAGGGGGCCACGGCAGAAGCGUUCACGCCGCAGCCCCUGUCCGAUCCUGGUGAAUCUGCGAAUUCUGCCGUAUAACUC: the self-cleavage was 0.2.
